# Test results published in the supplement of paper PMC11417369.
# ± gives the standard deviation of the averaged measurements. The list shows a part of the results.
# Test system: PfAP2-LT AP2 domain (GST-tagged)
# Assay: gcPBM binding intensity (ln(normalized median fluorescence intensity)); higher = stronger DNA binding
# Summary of the method: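 After 1 h on an Agilent 4 × 180k array of primer-extended double-stranded 36-bp intergenic genomic probes and negative controls, bound GST-tagged P. falciparum DNA-binding domains were detected with Alexa488 anti-GST antibody and scanned at 488 nm. The domains had been expressed in E. coli, and binding took place in 1× PBS with 1% milk, 0.2 mg/ml BSA, 0.5% salmon testes DNA and 0.03% Triton X-100. Binding intensity is the highest Masliner-normalised natural-log median intensity across replicate spots of either probe orientation.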
row,Sequence,gcPBM binding intensity (ln)
1,ATTATATATGTATGGTGTACTAAGAATATTTTTTTA [XGTACX_site1950],8.55 ± 0.45
2,AACACATACAAACACACACACAAAAAAAAAAAAAAA [CACACA_site393],9.65 ± 0.49
3,ATTCAATATAAATACACACACACTTTTAATAATTAA [CACACA_site5963],9.44 ± 0.3
4,ATTCACTGGTATGCATGAAAAAAAATATTATTATAA [CACACA_negctrl_site702],8.45 ± 0.44
5,TATATATATTTATACACACACATATATTTATATATT [CACACA_site484],9.22 ± 0.38
6,TTATGTGTATACTAAGAACACACAAGTTACTTGGTG [CACACA_site8467],9.77 ± 0.41
7,ATTTTGATAACCGTACGTACATATATATATATATAT [XGTACX_site6605],9.79 ± 0.028
8,TGAATACTTATGTTCGCACACATGCAAATTAAAAAA [CACACA_site4048],8.96 ± 0.43
9,ACATTCAATAAACGTCGTACACTTTCCTTTTTATGA [XGTACX_site3274],8.86 ± 0.52
10,AAAAAAACGATCGATCGTACTTATATTTACACATTC [XGTACX_site2883],8.9 ± 0.37
11,TTGTTTGGTTATAATTGTACGCATGTAATTACATAT [XGTACX_site4972],9.05 ± 0.42
12,TTATTTTTCTAAAAAGCATGCAAATAAAGATATGAA [TGCATGCA_site1032],8.51 ± 0.4
13,ACATGGTGATAATACTGTACAAAAATAAATAAATAC [XGTACX_site897],9.1 ± 0.5
14,ATATATATTTTATTATGTACTTACTTCTTTTCTTAA [XGTACX_site6163],8.89 ± 0.49
15,TTTTATAGTCTTATGGGTACAAAATATTAACCCACG [XGTACX_site1131],8.37 ± 0.51
16,TTAATATTTACAAAATGTACAGATTATTTATTGTTG [XGTACX_site1270],8.66 ± 0.45
17,AAATATGTCAAATATACACACATAATAACTAGAATA [CACACA_site7151],9.14 ± 0.39
18,TTTTTTAATATTTATACATGCATGCCGATTACTATA [TGCATGCA_site26],9.03 ± 0.5
19,AATAATTATAATAAGGGTACGTATCTCACAGGAAAA [XGTACX_site4187],8.96 ± 0.45

row,Sequence,gcPBM binding intensity (ln)
1,TTAATTTGTAAATAATGTACATATAAATGGAAAGTA [XGTACX_site2743],8.67 ± 0.4
2,TATTTATTAAAACACACACACACACCGACAAAATAA [CACACA_site4293],9.97 ± 0.25
3,TAATAAAACATATATACACACATTATGTATACATAT [CACACA_site1703],9.1 ± 0.37
4,ACAATACAAATATATACACACATACATACATACATA [CACACA_site5699],9.33 ± 0.35
5,TAAAATATTATCTACGCACACATTAAAATAAAAAAA [CACACA_site3709],8.86 ± 0.43
6,AAAACATTATTCCATACACACCATACTTTTTAATAA [CACACA_site7326],8.89 ± 0.34
7,CATTTGCACACGCACACACACATAAAAAGAAAAATA [CACACA_site6297],10 ± 0.35
8,ATAAAGAAAAGGAACACACAAATATGTAAATATGTA [CACACA_site6356],9.19 ± 0.45
9,TTACACATAAATACCATATAAATATAATGCATATCT [CACACA_negctrl_site1731],8.84 ± 0.38
10,CCCTGAGCACTTTCGTGTACTAATAGTAACAATAAT [XGTACX_site1418],8.94 ± 0.46
11,AATAATAAACACAATCAAATAAAATATGAAATATAA [GTGCAC_negctrl_site307],8.84 ± 0.49
12,AAATGTTGAAATGATACACACATATAAATATAAATA [CACACA_site7229],9.03 ± 0.46
13,AAACAAATGTATATGTGTACTTATTTTTTTGTATGT [XGTACX_site7134],8.8 ± 0.38
14,TATGTAGATAAATAAGCACACACCAAACATATAAAA [CACACA_site1182],9.53 ± 0.42
15,ATCAGTCGAGATGACAGTACACAGTAGCCAGGAAAT [XGTACX_site4932],9.12 ± 0.47
16,TATATATATTTAAAAAGTACAAAAAAAAAAAATGAA [XGTACX_site374],8.56 ± 0.49
17,AAAAAATAGACATATACACACATATGTATTTATAAT [CACACA_site5225],9.24 ± 0.47
18,CGTATGCAAGGAACCACACACACACCCATAAATGTA [CACACA_site749],9.65 ± 0.35
19,AATATAATAATAAAAACACACACGTTGATTGTATTA [CACACA_site2381],9.05 ± 0.38

row,Sequence,gcPBM binding intensity (ln)
1,TAAAAATTCAATTGCACACGCACATATTTTAATAAG [CACACA_site2014],8.78 ± 0.38
2,ATGTCATTATATACATGTACGCATATCTGTTTATCC [XGTACX_site3947],9.18 ± 0.51
3,CCTATAATAAATAATACACACATATTGTAAATATAT [CACACA_site7496],9.01 ± 0.41
4,ATTTCATATAGTGTAGTGCAATTTTAAGCATCAAGG,8.72 ± 0.37
5,TTAAAAATAAAAAATACACACTCTAGTCCATGTAAC [CACACA_site3640],8.84 ± 0.37
6,TTTTTTTTTATAAGGTGTACGTAAAATGTGTAGGTC [XGTACX_site3585],8.6 ± 0.38
7,TCATGTTTTACAAAAACACACAAATGAATATAAACC [CACACA_site1161],8.93 ± 0.35
8,TCACATATTATCTTTACACACTATATATAAGTTTTA [CACACA_site2790],8.78 ± 0.44
9,TTAAGATAGCAAATATGTACACATTTGTAAAATAAA [XGTACX_site4837],8.95 ± 0.49
10,AGTACAGACATAGACACACACACACCCATAAAAAAA [CACACA_site1515],9.99 ± 0.45
11,TGTACATAAATCTAATTATTATATGTGTATATATAT [CACACA_negctrl_site1582],8.63 ± 0.38
12,ATACGTATTTATTTCACACACGTTAAAAAAATAAAA [CACACA_site6027],8.85 ± 0.47
13,AGAATGAAATAATATACACACAAAGGAAAAATGTAA [CACACA_site3911],9.19 ± 0.47
14,AAGGAGCCTATGAACACACACATGTACCTATATTAA [CACACA_site7838],9.24 ± 0.45
15,ACTACATAATATTTACGTACCTAAAAAATTCTTATA [XGTACX_site509],8.55 ± 0.37
16,TCTTGACTAAATATATGTACATATATTTTAATAATA [XGTACX_site701],8.61 ± 0.32
17,TAAGTGCTTTTCAACTGTACCTTCCATTTATTTATT [XGTACX_site8589],8.81 ± 0.52
18,GTATTCAAAAGTGAAACATGCAATAATATATATATA [TGCATGCA_site617],8.91 ± 0.3
19,TTCTTATTTTATATTTCACACATTTTTACTATACTT [CACACA_site5817],9.03 ± 0.47
